# The list shows a part of the results.
# B1: PX14375C-bth-509-28-509 (Bacteroides thetaiotaomicron) (protein)
# chain: RSPQGQFTEDDNPNALVNGKIYNVYTMMRSFDITAGTPAIAIHYLRSEDSEKGSIPSDGSDVAEMYDDFLYTPTNGLLGSYWGKNYAIIYQCNDILDAIAEKETAGQTETEDIINKGEASFFRAYCYFNLVRAFGEVPLVTYKINDASEANIPKTTADKIYEQIDTDLKTAEESLPETWSTEYTGRLTWGAARSLHARTYMMRSDWDNMYKASTDVINKGLYNLKTPYNEIFTDDGENSGGSIFELQCTATAALPQSDVIGSQFCEVQGVRGAGQWDLGWGWHMATQLMADAYETGDPRKNATLLYFRKTDDEPITPENTNEPYGESPISPAMGAYFNKKAYTDPALRKEYTNKGFWVNIRLIRYSDVVLMAAEAANEKNIPGEAVDYLEMVRARARGTNTNILPKITTNDQGELREAIRHERRVELGLEPDRFYDLVRWGIASEVLHAAGKVNYQDKNALLPLPQSEIDKSKGVLVQNPDY
# Key:
# Experiment in all cases: glycan array binding signal (z-score within array); higher = stronger binding
# Conditions in all cases: glycan notation: IUPAC condensed, linker removed
# Gal(b1-2)Gal = target: Gal(b1-2)Gal
# How it was run: (§1)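 Glycan array data came from 3228 arrays in the Consortium for Functional Glycomics database, and only arrays with an available protein sequence were kept. Glycan names were put into IUPAC-condensed notation, and columns mapping to the same glycan were averaged. The binding signal is a within-array Z-score, averaged across arrays of one protein sequence run at different concentrations or buffers and across linkers. A negative Z-score can be read as non-binding.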
# Gal(b1-3)Gal = target: Gal(b1-3)Gal
# How it was run: as §1
# Gal(b1-3)Gal(b1-4)GlcNAc = target: Gal(b1-3)Gal(b1-4)GlcNAc
# How it was run: as §1
# Gal(b1-3)GalNAc = target: Gal(b1-3)GalNAc
# How it was run: as §1
# [1] = target: Gal(b1-3)GalNAc(a1-3)[Fuc(a1-2)]Gal(b1-4)Glc
# How it was run: as §1
# [2] = target: Gal(b1-3)GalNAc(a1-3)[Fuc(a1-2)]Gal(b1-4)GlcNAc
# How it was run: as §1
# Gal(b1-3)GalNAc(b1-3)Gal = target: Gal(b1-3)GalNAc(b1-3)Gal
# How it was run: as §1
# [3] = target: Gal(b1-3)GalNAc(b1-3)Gal(a1-4)Gal(b1-4)Glc
# How it was run: as §1
# [4] = target: Gal(b1-3)GalNAc(b1-4)Gal(b1-4)Glc
# How it was run: as §1
# [5] = target: Gal(b1-3)GalNAc(b1-4)[Neu5Ac(a2-3)]Gal(b1-4)Glc
# How it was run: as §1
# Gal(b1-3)GlcNAc = target: Gal(b1-3)GlcNAc
# How it was run: as §1
# [6] = target: Gal(b1-3)GlcNAc(a1-3)Gal(b1-4)GlcNAc
# How it was run: as §1
# [7] = target: Gal(b1-3)GlcNAc(a1-6)Gal(b1-4)GlcNAc
# How it was run: as §1
# Gal(b1-3)GlcNAc(b1-2)Man = target: Gal(b1-3)GlcNAc(b1-2)Man
# How it was run: as §1
# [8] = target: Gal(b1-3)GlcNAc(b1-2)Man(a1-3)[Gal(b1-3)GlcNAc(b1-2)Man(a1-6)]Man(b1-4)GlcNAc(b1-4)GlcNAc
# How it was run: as §1
# [9] = target: Gal(b1-3)GlcNAc(b1-2)Man(a1-3)[Gal(b1-3)GlcNAc(b1-2)Man(a1-6)]Man(b1-4)GlcNAc(b1-4)[Fuc(a1-6)]GlcNAc
# How it was run: as §1
# [10] = target: Gal(b1-3)GlcNAc(b1-2)Man(a1-3)[GlcNAc(b1-4)][Gal(b1-3)GlcNAc(b1-2)Man(a1-6)]Man(b1-4)GlcNAc(b1-4)GlcNAc
# How it was run: as §1
# [11] = target: Gal(b1-3)GlcNAc(b1-2)[Gal(b1-3)GlcNAc(b1-6)]Man(a1-6)[Gal(b1-3)GlcNAc(b1-2)Man(a1-3)]Man(b1-4)GlcNAc(b1-4)GlcNAc
# How it was run: as §1
# [12] = target: Gal(b1-3)GlcNAc(b1-3)Gal(b1-3)GlcNAc
# How it was run: as §1
# [13] = target: Gal(b1-3)GlcNAc(b1-3)Gal(b1-4)Glc
# How it was run: as §1
# [14] = target: Gal(b1-3)GlcNAc(b1-3)Gal(b1-4)GlcNAc
# How it was run: as §1
# [15] = target: Gal(b1-3)GlcNAc(b1-3)Gal(b1-4)GlcNAc(b1-2)Man(a1-3)[Gal(b1-3)GlcNAc(b1-3)Gal(b1-4)GlcNAc(b1-2)Man(a1-6)]Man(b1-4)GlcNAc(b1-4)GlcNAc
# How it was run: as §1
# [16] = target: Gal(b1-3)GlcNAc(b1-3)Gal(b1-4)GlcNAc(b1-2)[Gal(b1-3)GlcNAc(b1-3)Gal(b1-4)GlcNAc(b1-6)]Man(a1-6)[Gal(b1-3)GlcNAc(b1-3)Gal(b1-4)GlcNAc(b1-2)Man(a1-3)]Man(b1-4)GlcNAc(b1-4)[Fuc(a1-6)]GlcNAc
# How it was run: as §1
# [17] = target: Gal(b1-3)GlcNAc(b1-3)Gal(b1-4)GlcNAc(b1-3)Gal(b1-4)GlcNAc(b1-2)[Gal(b1-3)GlcNAc(b1-3)Gal(b1-4)GlcNAc(b1-3)Gal(b1-4)GlcNAc(b1-6)]Man(a1-6)[Gal(b1-3)GlcNAc(b1-3)Gal(b1-4)GlcNAc(b1-3)Gal(b1-4)GlcNAc(b1-2)Man(a1-3)]Man(b1-4)GlcNAc(b1-4)[Fuc(a1-6)]GlcNAc
# How it was run: as §1
# [18] = target: Gal(b1-3)GlcNAc(b1-3)Gal(b1-4)GlcNAc(b1-6)[Gal(b1-3)GlcNAc(b1-3)]Gal(b1-4)Glc
# How it was run: as §1
# [19] = target: Gal(b1-3)GlcNAc(b1-3)Gal(b1-4)[Fuc(a1-3)]GlcNAc
# How it was run: as §1
# [20] = target: Gal(b1-3)GlcNAc(b1-3)Gal(b1-4)[Fuc(a1-3)]GlcNAc(b1-6)[Gal(b1-3)GlcNAc(b1-3)]Gal(b1-4)Glc
# How it was run: as §1
# [21] = target: Gal(b1-3)GlcNAc(b1-3)GalNAc
# How it was run: as §1
# [22] = target: Gal(b1-3)GlcNAc(b1-6)Gal(b1-4)GlcNAc
# How it was run: as §1
# [23] = target: Gal(b1-3)GlcNAc(b1-6)GalNAc
# How it was run: as §1
# [24] = target: Gal(b1-3)GlcNAc(b1-6)[Gal(b1-3)]GalNAc
# How it was run: as §1
# Gal(b1-3)GlcNAc6S = target: Gal(b1-3)GlcNAc6S
# How it was run: as §1
# [25] = target: Gal(b1-3)[Fuc(a1-4)]GlcNAc
# How it was run: as §1
# [26] = target: Gal(b1-3)[Fuc(a1-4)]GlcNAc(b1-2)Man
# How it was run: as §1
# [27] = target: Gal(b1-3)[Fuc(a1-4)]GlcNAc(b1-2)Man(a1-3)[Gal(b1-3)[Fuc(a1-4)]GlcNAc(b1-2)Man(a1-6)]Man(b1-4)GlcNAc(b1-4)[Fuc(a1-6)]GlcNAc
# How it was run: as §1
# [28] = target: Gal(b1-3)[Fuc(a1-4)]GlcNAc(b1-3)Gal(b1-3)[Fuc(a1-4)]GlcNAc
# How it was run: as §1
# [29] = target: Gal(b1-3)[Fuc(a1-4)]GlcNAc(b1-3)Gal(b1-4)[Fuc(a1-3)]GlcNAc
# How it was run: as §1
binder,measurement,setting,value
B1,glycan array binding signal (z-score),Gal(b1-2)Gal,-0.211
same,glycan array binding signal (z-score),Gal(b1-3)Gal,-0.237
same,glycan array binding signal (z-score),Gal(b1-3)Gal(b1-4)GlcNAc,-0.316
same,glycan array binding signal (z-score),Gal(b1-3)GalNAc,-0.361
same,glycan array binding signal (z-score),[1],-0.271
same,glycan array binding signal (z-score),[2],-0.448
same,glycan array binding signal (z-score),Gal(b1-3)GalNAc(b1-3)Gal,-0.286
same,glycan array binding signal (z-score),[3],-0.381
same,glycan array binding signal (z-score),[4],-0.393
same,glycan array binding signal (z-score),[5],-0.247
same,glycan array binding signal (z-score),Gal(b1-3)GlcNAc,-0.186
same,glycan array binding signal (z-score),[6],-0.414
same,glycan array binding signal (z-score),[7],0.022
same,glycan array binding signal (z-score),Gal(b1-3)GlcNAc(b1-2)Man,-0.371
same,glycan array binding signal (z-score),[8],1.89
same,glycan array binding signal (z-score),[9],-0.115
same,glycan array binding signal (z-score),[10],-0.222
same,glycan array binding signal (z-score),[11],-0.353
same,glycan array binding signal (z-score),[12],-0.361
same,glycan array binding signal (z-score),[13],-0.374
same,glycan array binding signal (z-score),[14],-0.144
same,glycan array binding signal (z-score),[15],-0.167
same,glycan array binding signal (z-score),[16],0.234
same,glycan array binding signal (z-score),[17],1.23
same,glycan array binding signal (z-score),[18],-0.124
same,glycan array binding signal (z-score),[19],-0.265
same,glycan array binding signal (z-score),[20],-0.581
same,glycan array binding signal (z-score),[21],0.151
same,glycan array binding signal (z-score),[22],-0.342
same,glycan array binding signal (z-score),[23],1.05
same,glycan array binding signal (z-score),[24],0.239
same,glycan array binding signal (z-score),Gal(b1-3)GlcNAc6S,-0.208
same,glycan array binding signal (z-score),[25],-0.195
same,glycan array binding signal (z-score),[26],-0.21
same,glycan array binding signal (z-score),[27],0.351
same,glycan array binding signal (z-score),[28],-0.126
same,glycan array binding signal (z-score),[29],-0.485
